Test results from the supplement of paper PMC8728848.
The other results are listed elsewhere or left out.

Key:
Assay in all cases: glycan array binding signal (z-score within array); higher = stronger binding
Conditions in all cases: glycan notation: IUPAC condensed, linker removed
[1] = molecular target: Fuc(a1-3)[Gal(b1-4)]GlcNAc(b1-4)Gal(b1-4)[Fuc(a1-3)]GlcNAc(b1-4)Gal(b1-4)[Fuc(a1-3)]GlcNAc
Outline: (§1)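 The Consortium for Functional Glycomics database supplied 3228 glycan arrays, of which those lacking an available protein sequence were dropped. The binding signal, a within-array Z-score, was averaged across arrays of the same protein sequence and across linkers. Negative scores can be read as non-binding.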

[2] = molecular target: Fuc(a1-3)[Gal3S(b1-4)]GlcNAc
Outline: as §1

[3] = molecular target: Fuc(a1-3)[GalNAc(b1-4)]Gal(b1-4)GlcNAc
Outline: as §1

[4] = molecular target: Fuc(a1-4)GlcNAc
Outline: as §1

[5] = molecular target: Fuc(b1-3)GlcNAc
Outline: as §1

[6] = molecular target: Gal(a1-2)Gal
Outline: as §1

[7] = molecular target: Gal(a1-3)Gal
Outline: as §1

[8] = molecular target: Gal(a1-3)Gal(b1-3)Glc
Outline: as §1

[9] = molecular target: Gal(a1-3)Gal(b1-3)GlcNAc
Outline: as §1

[10] = molecular target: Gal(a1-3)Gal(b1-4)GlcNAc
Outline: as §1

[11] = molecular target: Gal(a1-3)Gal(b1-4)[Fuc(a1-3)]GalNAc
Outline: as §1

[12] = molecular target: Gal(a1-3)GlcNAc
Outline: as §1

[13] = molecular target: Gal(a1-3)[Gal(a1-4)]Gal(b1-4)GlcNAc
Outline: as §1

[14] = molecular target: Gal(a1-4)Gal(b1-4)Gal
Outline: as §1

[15] = molecular target: Gal(a1-4)Gal(b1-4)GalNAc
Outline: as §1

[16] = molecular target: Gal(a1-4)GlcNAc
Outline: as §1

[17] = molecular target: Gal(a1-6)Glc
Outline: as §1

[18] = molecular target: Gal(b1-2)Gal
Outline: as §1

[19] = molecular target: Gal(b1-3)Gal
Outline: as §1

[20] = molecular target: Gal(b1-3)GalNAc
Outline: as §1

[21] = molecular target: Gal(b1-3)GalNAc(b1-3)Gal(a1-4)Gal(b1-4)Glc
Outline: as §1

[22] = molecular target: Gal(b1-3)GalNAc(b1-3)Gal(b1-4)Glc
Outline: as §1

[23] = molecular target: Gal(b1-3)GalNAc(b1-3)Gal(b1-4)GlcNAc
Outline: as §1

[24] = molecular target: Gal(b1-3)GalNAc(b1-4)Gal(b1-4)Glc
Outline: as §1

[25] = molecular target: Gal(b1-3)GalNAc(b1-4)[Neu5Ac(a2-3)]Gal(b1-4)Glc
Outline: as §1

[26] = molecular target: Gal(b1-3)[Fuc(a1-4)]GlcNAc
Outline: as §1

[27] = molecular target: Gal(b1-3)[Fuc(a1-4)]GlcNAc(b1-3)Gal(b1-4)GlcNAc
Outline: as §1

[28] = molecular target: Gal(b1-3)[Fuc(a1-4)]GlcNAc(b1-3)Gal(b1-4)[Fuc(a1-3)]GlcNAc
Outline: as §1

[29] = molecular target: Gal(b1-3)[GlcNAc(b1-6)]GalNAc
Outline: as §1

[30] = molecular target: Gal(b1-3)[GlcNAc(b1-6)]GlcNAc
Outline: as §1

[31] = molecular target: Gal(b1-3)[Neu5Ac(a2-6)]GalNAc
Outline: as §1

[32] = molecular target: Gal(b1-3)[Neu5Ac(a2-6)]GlcNAc
Outline: as §1

[33] = molecular target: Gal(b1-3)[Neu5Ac(a2-6)]GlcNAc(a1-4)Gal(b1-4)Glc
Outline: as §1

[34] = molecular target: Gal(b1-3)[Neu5Ac(b2-6)]GlcNAc
Outline: as §1

[35] = molecular target: Gal(b1-4)GalNAc(a1-3)[Fuc(a1-2)]Gal(b1-4)GlcNAc
Outline: as §1

[36] = molecular target: Gal(b1-4)GalNAc(b1-3)[Fuc(a1-2)]Gal(b1-4)GlcNAc
Outline: as §1

[37] = molecular target: Gal(b1-4)Glc
Outline: as §1

[38] = molecular target: Gal(b1-4)Glc6S
Outline: as §1

[39] = molecular target: Gal(b1-4)GlcNAc
Outline: as §1

[40] = molecular target: Gal(b1-4)GlcNAc(b1-2)Man(a1-3)[Gal(b1-4)GlcNAc(b1-2)Man(a1-6)]Man(b1-4)GlcNAc(b1-4)GlcNAc
Outline: as §1

[41] = molecular target: Gal(b1-4)GlcNAc(b1-3)Gal(b1-4)Glc
Outline: as §1

[42] = molecular target: Gal(b1-4)GlcNAc(b1-3)Gal(b1-4)GlcNAc
Outline: as §1

[43] = molecular target: Gal(b1-4)GlcNAc(b1-3)Gal(b1-4)GlcNAc(b1-3)Gal(b1-4)GlcNAc
Outline: as §1

[44] = molecular target: Gal(b1-4)GlcNAc(b1-3)Gal(b1-4)[Fuc(a1-3)]GlcNAc(b1-3)Gal(b1-4)[Fuc(a1-3)]GlcNAc
Outline: as §1

[45] = molecular target: Gal(b1-4)GlcNAc(b1-3)GalNAc
Outline: as §1

[46] = molecular target: Gal(b1-4)GlcNAc(b1-3)[Gal(b1-4)GlcNAc(b1-6)]GalNAc
Outline: as §1

[47] = molecular target: Gal(b1-4)GlcNAc(b1-6)GalNAc
Outline: as §1

[48] = molecular target: Gal(b1-4)GlcNAc(b1-6)[Gal(b1-3)]GalNAc
Outline: as §1

[49] = molecular target: Gal(b1-4)GlcNAc(b1-6)[Gal(b1-3)]GlcNAc
Outline: as §1

[50] = molecular target: Gal3S(b1-3)GalNAc
Outline: as §1

[51] = molecular target: Gal3S(b1-3)GlcNAc
Outline: as §1

[52] = molecular target: Gal3S(b1-3)[Fuc(a1-4)]GlcNAc
Outline: as §1

[53] = molecular target: Gal3S(b1-4)Glc
Outline: as §1

[54] = molecular target: Gal3S(b1-4)Glc6S
Outline: as §1

[55] = molecular target: Gal3S(b1-4)GlcNAc
Outline: as §1

[56] = molecular target: Gal3S(b1-4)GlcNAc6S
Outline: as §1

[57] = molecular target: Gal3S6S(b1-4)GlcNAc
Outline: as §1

[58] = molecular target: Gal3S6S(b1-4)GlcNAc6S
Outline: as §1

[59] = molecular target: Gal4S(b1-4)GlcNAc
Outline: as §1

[60] = molecular target: Gal4S6S(b1-4)GlcNAc
Outline: as §1

[61] = molecular target: Gal6S(b1-4)Glc
Outline: as §1

[62] = molecular target: Gal6S(b1-4)Glc6S
Outline: as §1

[63] = molecular target: Gal6S(b1-4)GlcNAc
Outline: as §1

[64] = molecular target: GalNAc(a1-3)Gal
Outline: as §1

[65] = molecular target: GalNAc(a1-3)GalNAc
Outline: as §1

[66] = molecular target: GalNAc(b1-3)Gal(a1-4)Gal(b1-4)GlcNAc
Outline: as §1

[67] = molecular target: GalNAc(b1-4)GlcNAc
Outline: as §1

[68] = molecular target: Glc(a1-4)Glc
Outline: as §1

[69] = molecular target: Glc(a1-6)Glc(a1-6)Glc
Outline: as §1

[70] = molecular target: Glc(b1-4)Glc
Outline: as §1

[71] = molecular target: Glc(b1-6)Glc
Outline: as §1

[72] = molecular target: GlcA(b1-3)Gal
Outline: as §1

[73] = molecular target: GlcA(b1-6)Gal
Outline: as §1

[74] = molecular target: GlcNAc(a1-3)Gal(b1-4)GlcNAc
Outline: as §1

[75] = molecular target: GlcNAc(a1-6)Gal(b1-4)GlcNAc
Outline: as §1

B1: chitinase 3-like protein 2 (Homo sapiens) (protein)
chain: YKLVCYFTQWSQDRQEPGKFTPENIDPFLCSHLIYSFASIENNKVIIKDKSEVMLYQTINSLKTKNPKLKILLSIGGYLFGSKGFHPMVDSSTSRLEFINSIILFLRNHNFDGLDVSWIYPDQKENTHFTVLIHELAEAFQKDFTKSTKERLLLTAGVSAGRQMIDNSYQVEKLAKDLDFINLLSFDFHGSWEKPLITGHNSPLSKGWQDRGPSSYYNVEYAVGYWIHKGMPSEKVVMGIPTYGHSFTLASAETTVGAPASGPGAAGPITESSGFLAYYEICQFLKGAKITRLQDQQVPYAVKGNQWVGYDDVKSMETKVQFLKNLNLGGAMIWSIDMDDFTGKSCNQGPYPLVQAVKRSLGSL
- glycan array binding signal (z-score) [1]: -0.202
- glycan array binding signal (z-score) [2]: -0.163
- glycan array binding signal (z-score) [3]: -0.196
- glycan array binding signal (z-score) [4]: -0.275
- glycan array binding signal (z-score) [5]: -0.028
- glycan array binding signal (z-score) [6]: -0.224
- glycan array binding signal (z-score) [7]: -0.265
- glycan array binding signal (z-score) [8]: -0.178
- glycan array binding signal (z-score) [9]: -0.171
- glycan array binding signal (z-score) [10]: -0.124
- glycan array binding signal (z-score) [11]: -0.177
- glycan array binding signal (z-score) [12]: -0.194
- glycan array binding signal (z-score) [13]: -0.176
- glycan array binding signal (z-score) [14]: -0.093
- glycan array binding signal (z-score) [15]: -0.091
- glycan array binding signal (z-score) [16]: -0.21
- glycan array binding signal (z-score) [17]: -0.259
- glycan array binding signal (z-score) [18]: -0.205
- glycan array binding signal (z-score) [19]: -0.244
- glycan array binding signal (z-score) [20]: -0.218
- glycan array binding signal (z-score) [21]: -0.238
- glycan array binding signal (z-score) [22]: -0.269
- glycan array binding signal (z-score) [23]: -0.233
- glycan array binding signal (z-score) [24]: -0.238
- glycan array binding signal (z-score) [25]: -0.151
- glycan array binding signal (z-score) [26]: -0.233
- glycan array binding signal (z-score) [27]: -0.248
- glycan array binding signal (z-score) [28]: -0.163
- glycan array binding signal (z-score) [29]: -0.279
- glycan array binding signal (z-score) [30]: -0.209
- glycan array binding signal (z-score) [31]: -0.26
- glycan array binding signal (z-score) [32]: -0.12
- glycan array binding signal (z-score) [33]: -0.201
- glycan array binding signal (z-score) [34]: -0.232
- glycan array binding signal (z-score) [35]: -0.181
- glycan array binding signal (z-score) [36]: -0.197
- glycan array binding signal (z-score) [37]: -0.037
- glycan array binding signal (z-score) [38]: -0.256
- glycan array binding signal (z-score) [39]: -0.237
- glycan array binding signal (z-score) [40]: 0.314
- glycan array binding signal (z-score) [41]: 0.135
- glycan array binding signal (z-score) [42]: -0.202
- glycan array binding signal (z-score) [43]: -0.24
- glycan array binding signal (z-score) [44]: -0.183
- glycan array binding signal (z-score) [45]: -0.183
- glycan array binding signal (z-score) [46]: -0.138
- glycan array binding signal (z-score) [47]: -0.203
- glycan array binding signal (z-score) [48]: -0.283
- glycan array binding signal (z-score) [49]: -0.165
- glycan array binding signal (z-score) [50]: -0.147
- glycan array binding signal (z-score) [51]: -0.006
- glycan array binding signal (z-score) [52]: -0.094
- glycan array binding signal (z-score) [53]: -0.212
- glycan array binding signal (z-score) [54]: -0.176
- glycan array binding signal (z-score) [55]: -0.096
- glycan array binding signal (z-score) [56]: -0.081
- glycan array binding signal (z-score) [57]: -0.179
- glycan array binding signal (z-score) [58]: -0.151
- glycan array binding signal (z-score) [59]: -0.208
- glycan array binding signal (z-score) [60]: -0.066
- glycan array binding signal (z-score) [61]: -0.062
- glycan array binding signal (z-score) [62]: 0.079
- glycan array binding signal (z-score) [63]: -0.211
- glycan array binding signal (z-score) [64]: -0.046
- glycan array binding signal (z-score) [65]: -0.205
- glycan array binding signal (z-score) [66]: -0.193
- glycan array binding signal (z-score) [67]: 2.63
- glycan array binding signal (z-score) [68]: -0.192
- glycan array binding signal (z-score) [69]: -0.245
- glycan array binding signal (z-score) [70]: -0.25
- glycan array binding signal (z-score) [71]: -0.197
- glycan array binding signal (z-score) [72]: -0.236
- glycan array binding signal (z-score) [73]: -0.235
- glycan array binding signal (z-score) [74]: -0.271
- glycan array binding signal (z-score) [75]: -0.221
